{"source": "paper PMC4336329", "about": "(PLoS ONE, 2015)", "note": "Among all 310,000 compounds or so, about 2,200 (0.71%) showed an effect of 50% or more. The effect is printed as a negative number. This is one part of the list."}
{"molecular_target": "human ether-à-go-go-related gene (hERG) potassium channel (human, UniProt Q12809)", "sequence (Q12809 whole entry, looked up)": "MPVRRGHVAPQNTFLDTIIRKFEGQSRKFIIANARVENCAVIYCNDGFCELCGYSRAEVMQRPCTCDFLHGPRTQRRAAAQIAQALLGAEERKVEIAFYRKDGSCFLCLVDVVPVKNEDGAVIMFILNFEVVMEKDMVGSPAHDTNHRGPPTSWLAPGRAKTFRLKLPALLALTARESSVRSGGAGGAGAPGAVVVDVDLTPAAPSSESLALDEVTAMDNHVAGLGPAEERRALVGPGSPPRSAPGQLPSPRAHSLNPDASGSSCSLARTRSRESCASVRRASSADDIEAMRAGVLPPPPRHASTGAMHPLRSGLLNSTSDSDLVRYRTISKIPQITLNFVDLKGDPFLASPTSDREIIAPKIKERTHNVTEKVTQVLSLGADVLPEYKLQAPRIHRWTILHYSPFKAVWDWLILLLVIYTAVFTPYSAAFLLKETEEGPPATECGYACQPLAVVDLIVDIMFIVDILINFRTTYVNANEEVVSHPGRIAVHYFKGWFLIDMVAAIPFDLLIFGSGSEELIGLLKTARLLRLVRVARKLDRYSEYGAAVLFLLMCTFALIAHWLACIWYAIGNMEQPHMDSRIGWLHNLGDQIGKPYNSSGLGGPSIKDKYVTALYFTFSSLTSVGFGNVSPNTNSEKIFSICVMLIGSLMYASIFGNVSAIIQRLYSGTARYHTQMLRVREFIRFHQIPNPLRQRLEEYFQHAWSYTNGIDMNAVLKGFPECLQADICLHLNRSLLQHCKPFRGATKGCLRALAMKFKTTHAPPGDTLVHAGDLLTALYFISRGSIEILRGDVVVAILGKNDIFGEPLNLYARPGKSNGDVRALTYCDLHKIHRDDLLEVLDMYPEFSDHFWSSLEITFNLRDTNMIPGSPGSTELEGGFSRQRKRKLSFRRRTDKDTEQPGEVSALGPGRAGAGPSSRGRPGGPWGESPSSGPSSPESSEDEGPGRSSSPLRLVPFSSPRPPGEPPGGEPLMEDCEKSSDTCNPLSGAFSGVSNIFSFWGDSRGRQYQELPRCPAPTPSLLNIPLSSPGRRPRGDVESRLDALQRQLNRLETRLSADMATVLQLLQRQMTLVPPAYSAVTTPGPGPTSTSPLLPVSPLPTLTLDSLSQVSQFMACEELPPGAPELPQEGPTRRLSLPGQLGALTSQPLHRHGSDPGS", "assay": "primary screen, population patch clamp on CHO cells stably expressing hERG", "units": {"hERG current change (%, negative = inhibition) at 1uM": "%"}}
{"smiles": "CC1CCCCC1NC(=O)COC(=O)/C=C/c1ccco1", "note": "(stereo not drawn)", "hERG current change (%, negative = inhibition) at 1uM": 2.83}
{"smiles": "Cc1cccc(NC(=O)C2CCN(S(=O)(=O)c3c(C)nn(C)c3C)CC2)n1", "hERG current change (%, negative = inhibition) at 1uM": 13.6}
{"smiles": "O=C(Nc1cc(Cl)ccc1-n1cncn1)c1cc(F)c(F)c(F)c1F", "hERG current change (%, negative = inhibition) at 1uM": -8.93}
{"smiles": "Cc1c(C=O)c2ccccn2c1C(=O)c1ccccc1Cl", "hERG current change (%, negative = inhibition) at 1uM": 9.3}
{"smiles": "CC(=O)Nc1ccc2c(c1)nc(CCNC(=O)c1ccccc1)n2C", "hERG current change (%, negative = inhibition) at 1uM": 11.6}
{"smiles": "CC(C)c1ccc(C(=O)OCC(=O)NC2CCCC2)cc1", "hERG current change (%, negative = inhibition) at 1uM": 15.2}
{"smiles": "O=C(Nc1ccccc1C(F)(F)F)N1CCC(n2c(=O)[nH]c3ccccc32)CC1", "hERG current change (%, negative = inhibition) at 1uM": 7.45}
{"smiles": "O=C(Cn1nc(Cl)nc1Cl)Nc1ccccc1", "hERG current change (%, negative = inhibition) at 1uM": 2.75}
{"smiles": "COc1ccc(C(=O)Nc2ccc(S(=O)(=O)Nc3nccc(C)n3)cc2)cc1[N+](=O)[O-]", "hERG current change (%, negative = inhibition) at 1uM": 14.2}
{"smiles": "CC(CCc1ccc(O)cc1)NCCc1ccc(O)c(O)c1.Cl", "note": "(stereo not drawn)", "hERG current change (%, negative = inhibition) at 1uM": 2.55}
{"smiles": "CS(=O)(=O)NNC(=O)c1csc(Cc2c(Cl)sc3ccc(Cl)cc23)n1", "hERG current change (%, negative = inhibition) at 1uM": 13}
{"smiles": "CC(C)C(NC(=O)c1ccc(C(C)(C)C)cc1)C(=O)NCC(c1ccccc1)N(C)C", "note": "(stereo not drawn)", "hERG current change (%, negative = inhibition) at 1uM": 5.09}
{"smiles": "Cc1cc(C)nc(SSc2nc(C)cc(C)n2)n1", "hERG current change (%, negative = inhibition) at 1uM": 12.8}
{"smiles": "O=C(NC(c1ccccc1)c1ccccn1)c1cccc([N+](=O)[O-])c1", "note": "(stereo not drawn)", "hERG current change (%, negative = inhibition) at 1uM": 12.3}
{"smiles": "COc1ccc(CCN2C(=O)CSC2c2ccc(OC)c(OC)c2)cc1OC", "note": "(stereo not drawn)", "hERG current change (%, negative = inhibition) at 1uM": 8.99}
{"smiles": "Cn1cnnc1SCC(=O)Nc1ccc(S(=O)(=O)N2CCOCC2)cc1", "hERG current change (%, negative = inhibition) at 1uM": 6.46}
{"smiles": "CN1C(=O)C(=Cc2ccc(N(C)C)c([N+](=O)[O-])c2)C(=O)N(C)C1=O", "hERG current change (%, negative = inhibition) at 1uM": 2.88}
{"smiles": "COC(=O)CCC(=O)N1CCCC(CO)(Cc2ccccc2)C1", "note": "(stereo not drawn)", "hERG current change (%, negative = inhibition) at 1uM": 9.27}
{"smiles": "Cc1ccc(Cl)c(OCC(=O)Nc2ccccc2C(=O)NC2CC2)c1", "hERG current change (%, negative = inhibition) at 1uM": 11.7}
{"smiles": "Cc1ccc(NC(=O)COC(=O)C2CSC3(C)CCC(=O)N23)cc1S(=O)(=O)N1CCOCC1", "note": "(stereo not drawn)", "hERG current change (%, negative = inhibition) at 1uM": 0.667}
{"smiles": "CC(=O)Nc1sc2c(c1CN1CCN(C)CC1)CCCC2", "hERG current change (%, negative = inhibition) at 1uM": 4.81}
{"smiles": "CSc1ncccc1C(=O)OCC(=O)N1CC(=O)Nc2ccccc21", "hERG current change (%, negative = inhibition) at 1uM": 10.4}
{"smiles": "COc1ccc(-c2nnc(NC(=O)c3ccc4c(c3)OCCO4)o2)cc1", "hERG current change (%, negative = inhibition) at 1uM": 13.2}
{"smiles": "CC(NC(=O)c1cc(-c2ccccc2)nc2ccccc12)C1CCCO1", "note": "(stereo not drawn)", "hERG current change (%, negative = inhibition) at 1uM": 6.97}
{"smiles": "Nc1nonc1-n1nnc(C(=O)N/N=C/c2ccccc2O)c1CN1CCCC1", "hERG current change (%, negative = inhibition) at 1uM": 10.8}
{"smiles": "COCCCn1cnc2c(c1=O)c1nc3ccccc3nc1n2-c1ccc(C)cc1", "hERG current change (%, negative = inhibition) at 1uM": 8.35}
{"smiles": "C=CCNC(=O)c1ccccc1NC(=O)Cc1ccccc1[N+](=O)[O-]", "hERG current change (%, negative = inhibition) at 1uM": 3.13}
{"smiles": "O=C1c2nc3ccccn3c2C(=O)N1Cc1ccccc1", "hERG current change (%, negative = inhibition) at 1uM": 11.8}
{"smiles": "O=C(CSc1n[nH]c(=O)[nH]c1=O)Nc1ccccc1C(=O)c1ccccc1", "hERG current change (%, negative = inhibition) at 1uM": 10.5}
{"smiles": "CCOC(=O)c1c(C)[nH]c(C(=O)CSc2nnc(C3CC3)n2N)c1C", "hERG current change (%, negative = inhibition) at 1uM": 9.07}
{"smiles": "CC(=O)Nc1nc(C)c(-c2csc([NH2+]c3ccc(S(N)(=O)=O)cc3)n2)s1.[Br-]", "hERG current change (%, negative = inhibition) at 1uM": 9.67}
{"smiles": "CCN(CC)C(=O)c1ccccc1NS(C)(=O)=O", "hERG current change (%, negative = inhibition) at 1uM": 2.77}
{"smiles": "COc1ccccc1N=Nc1c(O)[nH]c(=S)[nH]c1=O", "hERG current change (%, negative = inhibition) at 1uM": 16}
{"smiles": "CC(=O)N1N=C(c2ccc3ccccc3c2)OC12CCCC2", "hERG current change (%, negative = inhibition) at 1uM": 5.76}
{"smiles": "Cc1ccc(C(=O)NCCCNC(=O)c2ccccc2F)cn1", "hERG current change (%, negative = inhibition) at 1uM": 14}
{"smiles": "Cc1cc(C)c(NC(=O)C(C)(C)C)c(Cl)c1", "hERG current change (%, negative = inhibition) at 1uM": 0.175}
{"smiles": "O=C(c1cc(COc2ccc(F)cc2Cl)on1)N1CCCCCC1", "hERG current change (%, negative = inhibition) at 1uM": 14.1}
{"smiles": "Cc1cccc(OCCC(=O)Nc2ccc(F)c(F)c2)c1", "hERG current change (%, negative = inhibition) at 1uM": 6.44}
{"smiles": "Cc1cc(SCC(=O)NN)c2cc(Br)ccc2n1", "hERG current change (%, negative = inhibition) at 1uM": 11.2}
{"smiles": "CC(=O)c1ccc(N2CCN(CCC#N)CC2)c(F)c1", "hERG current change (%, negative = inhibition) at 1uM": 4.12}
{"smiles": "CCn1c(NCc2ccccc2Cl)nc2ccccc21", "hERG current change (%, negative = inhibition) at 1uM": 12.9}
{"smiles": "Cc1nc(NC(=O)COC(=O)c2cc3c(s2)CCC(C)C3)c(Cl)cc1Cl", "note": "(stereo not drawn)", "hERG current change (%, negative = inhibition) at 1uM": 6.35}
{"smiles": "O=C(COC(=O)c1cc(Cl)ccc1Cl)Nc1ccc2[nH]c(=O)[nH]c2c1", "hERG current change (%, negative = inhibition) at 1uM": -4.65}
{"smiles": "C[C@H]1C=C(C(=O)NCc2ccccc2)O[C@@H](OCc2ccc(CO)cc2)C1", "hERG current change (%, negative = inhibition) at 1uM": -0.188}
{"smiles": "Cc1cc(N2CCC(C)CC2)n2ncc(-c3ccccc3)c2n1", "hERG current change (%, negative = inhibition) at 1uM": 3.83}
